Source: PubChem BioAssay (EPA / NIEHS)
Only a part is listed here, and it is no random draw. Records with an inconclusive call do not appear. Activity calls are given as the source filed them. How the source made its calls: active means hit-call score of the fitted dose curve at least 0.9, where 1 is the maximum; inconclusive means response in the unintended direction; inactive means score below 0.9.

Assay: TOX21_p53_BLA_p2_viability: Viability Assessment in the Tox21 HCT-116 p53 Agonism Beta-lactamase Assay, Phase 2 (AID 2283591);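 further: compound exposure lasted 16 h at 37 °C; actives lower the ATP signal meaning cytotoxicity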
Procedure, shortened: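 HCT-116 p53-bla cells (4000/well) rested 5 h at 37C, then received compounds in DMSO (217-fold dilution) for 16 h at 37C, 5% CO2. After the CCF4 read, CellTiter-Glo was added; ATP luminescence was read after 30 min at room temperature.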

Structure (SMILES) | outcome
C=CN1CCCC1=O | inactive
COc1ccc(C(=O)CC(=O)c2ccc(C(C)(C)C)cc2)cc1 | inactive
Cc1ccc(C(C)(C)C)c(O)c1 | inactive
NCCCC[C@H](NC(=O)[C@@H]1CCCN1C(=O)[C@@H]1CSSC[C@H](NC(=O)CNC(=O)CNC(=O)CN)C(=O)N[C@@H](Cc2ccc(O)cc2)C(=O)N[C@@H](Cc2ccccc2)C(=O)N[C@@H](CCC(N)=O)C(=O)N[C@@H](CC(N)=O)C(=O)N1)C(=O)NCC(N)=O | inactive
COc1cccc(N(C)C(=S)Oc2ccc3c(c2)CCCC3)n1 | inactive
C[C@@H]1C[C@H]2[C@@H]3CCC4=CC(=O)C=C[C@]4(C)[C@@]3(F)[C@@H](O)C[C@]2(C)[C@@]1(O)C(=O)CO | inactive
CC(=O)O[C@H]1C(=O)[C@@]2(C)[C@H]([C@H](OC(=O)c3ccccc3)[C@]3(O)C[C@H](OC(=O)[C@H](O)[C@@H](NC(=O)c4ccccc4)c4ccccc4)C(C)=C1C3(C)C)[C@]1(OC(C)=O)CO[C@@H]1C[C@@H]2O | inactive
O=C1CC2(CCCC2)CC(=O)N1CCNCC1COc2ccccc2O1 (stereo not drawn) | inactive
CC[N+](C)(CC)CC | inactive

Assay: TOX21_p53_BLA_p3_viability: Viability Assessment in the Tox21 HCT-116 p53 Agonism Beta-lactamase Assay, Phase 3 (AID 2283593);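 further: cells exposed to compound for 16 h before reading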
Procedure, shortened: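 HCT-116 cells (4000/well) rested 5 h at 37C, then got DMSO compounds by pin tool (217-fold dilution) for 16 h at 37C, 5% CO2. After the bla read, CellTiter-Glo was added and luminescence read at 30 min, room temperature.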

Structure (SMILES) | outcome
COCCOCCOCCOCCOC | inactive
CCCOCCO | inactive
CC(C)C[C@H](NC(=O)OCC1c2ccccc2-c2ccccc21)C(=O)O | inactive
Cc1nc(-c2ccc3c(c2)CCN(CCC2CCC(NC(=O)/C=C/c4ccc(F)cc4)CC2)CC3)no1 (stereo not drawn) | inactive
O=C(c1ccc(F)cc1)C1CCN(CCn2c(=S)[nH]c3ccccc3c2=O)CC1 | inactive
O=C=Nc1ccc(Cl)c(Cl)c1 | inactive
S=C(SSSSSSC(=S)N1CCCCC1)N1CCCCC1 | inactive
CC(CN1c2ccccc2Sc2ccccc21)N(C)C (stereo not drawn) | inactive
CC[N+](CC)(CCNC(=O)C(=O)NCC[N+](CC)(CC)Cc1ccccc1Cl)Cc1ccccc1Cl | inactive
O=C(Cl)c1c(Cl)c(Cl)c(C(=O)Cl)c(Cl)c1Cl | inactive
OCCOCCN1CCN(C(c2ccccc2)c2ccc(Cl)cc2)CC1 (stereo not drawn) | inactive
C[C@H]1C[C@H]2[C@@H]3CCC4=CC(=O)C=C[C@]4(C)[C@@]3(F)[C@@H](O)C[C@]2(C)[C@@]1(O)C(=O)CO | inactive
O=S(=O)(O)c1cccc2c(S(=O)(=O)O)cccc12 | inactive
CC(C)[C@@H](N)C(=O)O | inactive
C=CCCC(=O)/C=C/C1C(C)=CCCC1(C)C (stereo not drawn) | inactive
CCCc1nc(C(C)(C)O)c(C(=O)OCc2oc(=O)oc2C)n1Cc1ccc(-c2ccccc2-c2nn[nH]n2)cc1 | inactive

Assay: TOX21_p53_BLA_p4_viability: Viability Assessment in the Tox21 HCT-116 p53 Agonism Beta-lactamase Assay, Phase 4 (AID 2283597);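 further: hits lower the luminescence signal meaning cytotoxicity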
Procedure, shortened: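 Readout: ATP luminescence (CellTiter-Glo), measured 30 min after reagent addition at RT. The reagent followed a 2 h CCF4-AM incubation, and the cells had been exposed to compound for 16 h at 37C.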

Structure (SMILES) | outcome | AC50
C=C(C)C(=O)Nc1ccc(Cl)c(Cl)c1 | inactive | 
CO[C@H]1O[C@@H]2O[C@@]3(C)CC[C@H]4[C@H](C)CC[C@@H]([C@H]1C)[C@@]24OO3 | inactive | 
Cc1cc(C(C)(C)C)cc(C)c1CC1=NCCN1 | inactive | 
CCCCCCC1CCC(=O)O1 (stereo not drawn) | inactive | 
O=C1C(c2[nH]c3ccc(S(=O)(=O)O)cc3c2O)=Nc2ccc(S(=O)(=O)O)cc21 | inactive | 
NC(N)=NC(=O)c1nc(Cl)c(N)nc1N | inactive | 
CC1(C)O[C@@H]2[C@@H](CO[C@@]3(COS(N)(=O)=O)OC(C)(C)O[C@@H]23)O1 | inactive | 
O=C(O)[C@@H]1[C@H]2C[C@H]3c4[nH]c5ccccc5c4CCN3C[C@@H]2CC[C@@H]1O | inactive | 
CN(C)CCn1nnnc1SCC1=C(C(=O)O)N2C(=O)[C@@H](NC(=O)Cc3csc(N)n3)[C@H]2SC1 | inactive | 
COc1cc(N)c(Cl)cc1C(=O)NC1CCN(Cc2ccccc2)CC1 | inactive | 
Nc1ccc2cc(S(=O)(=O)O)cc(O)c2c1 | inactive | 
CC(=O)Oc1cccc(C)c1 | inactive | 
C1CCC(C(CC2CCCCN2)C2CCCCC2)CC1 (stereo not drawn) |  | active: 10.6 µM
